Reference: US11365205B2 (Aurigene Discovery Technologies Limited, priority 2018, dated 2022)

Molecular target: PRMT5/MEP50 Complex (Homo sapiens (Human), UniProt O14744)
Assay: PRMT5 inhibition based on TR-FRET assay
Format: biochemical
Conditions: 32 nM PRMT5:MEP50, 50 nM Histone-H4 peptide, 1 μM SAM
Description: PRMT5 Inhibition Based on TR-FRET Assay:
Protein arginine methyltransferase 5 (PRMT5) is a type II arginine methyltransferase that catalyze mono- and symmetric demethylation on arginine residues of histone or non-histone proteins in presence of S-adenosylmethionine (AdoMet or SAM) a cofactor responsible for donating the methyl group. PRMT5 is reported to be overexpressed in several human cancers. To identify compounds that inhibit the PRMT5 and decrease its activity, a TR-FRET based assay has been established. Time-resolved fluorescence resonance energy transfer (TR-FRET) HTS assays are homogeneous proximity assays where the interaction of two dye-labeled binding partners is detected by the energy transfer between a donor and an acceptor dye and the subsequent light emission by the acceptor dye. PRMT5 catalyzes Histone H4 peptide which is biotin tagged to the Lysine amino acid at carboxyl end, in presence of S-adenosyl-1-methionine (SAM) to methylate the peptide. The antibody specific to mono methylated H4 peptide (H4R3) with Ig conjugate binds to the methylated peptide, indirectly binding to the Europium lanthanide. […]
The compound dilutions were prepared as 7.5% DMSO stock solutions in assay buffer. […] The plates were then read on Victor-3 with Excitation at 340 nm and Emissions collected at 615 and 665 nm in TR-FRET protocol. […]

UniProt O14744, sequence (O14744 whole entry): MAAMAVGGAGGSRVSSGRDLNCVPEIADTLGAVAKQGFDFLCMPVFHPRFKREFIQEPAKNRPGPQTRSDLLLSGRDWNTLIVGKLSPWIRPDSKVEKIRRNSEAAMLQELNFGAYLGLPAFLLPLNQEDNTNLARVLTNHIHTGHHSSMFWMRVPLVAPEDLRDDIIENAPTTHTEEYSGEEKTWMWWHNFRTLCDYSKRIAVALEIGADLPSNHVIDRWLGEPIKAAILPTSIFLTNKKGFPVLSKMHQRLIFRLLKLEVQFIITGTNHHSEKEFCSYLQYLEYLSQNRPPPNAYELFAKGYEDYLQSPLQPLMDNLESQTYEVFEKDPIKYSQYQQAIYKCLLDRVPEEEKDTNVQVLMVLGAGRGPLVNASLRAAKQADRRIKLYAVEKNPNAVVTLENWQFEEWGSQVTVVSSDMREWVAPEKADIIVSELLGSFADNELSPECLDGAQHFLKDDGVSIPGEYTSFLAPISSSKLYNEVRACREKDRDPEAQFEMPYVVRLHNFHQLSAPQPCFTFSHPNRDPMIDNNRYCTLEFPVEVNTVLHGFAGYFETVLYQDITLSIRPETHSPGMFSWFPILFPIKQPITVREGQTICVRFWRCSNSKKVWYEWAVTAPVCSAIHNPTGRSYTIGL
UniProt O14744, sequence (Q9BQA1 whole entry partner): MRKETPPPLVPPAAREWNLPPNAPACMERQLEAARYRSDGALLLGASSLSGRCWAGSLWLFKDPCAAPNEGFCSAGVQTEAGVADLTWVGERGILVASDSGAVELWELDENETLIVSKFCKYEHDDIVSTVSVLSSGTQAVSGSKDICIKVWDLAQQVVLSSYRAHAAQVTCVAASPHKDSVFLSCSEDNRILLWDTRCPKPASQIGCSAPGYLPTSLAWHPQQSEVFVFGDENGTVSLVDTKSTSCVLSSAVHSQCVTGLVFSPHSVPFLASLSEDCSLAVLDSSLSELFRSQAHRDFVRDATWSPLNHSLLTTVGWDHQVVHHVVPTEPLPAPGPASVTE

IC50 [nM]	Structure (SMILES)
230	CC1(C)C(=O)N(Cc2ccc3c(c2)COCC3)C(=O)N1CC(O)CN1CCc2ccccc2C1 (centres unmarked) [Example 76, 1-(3-(3,4-dihydroisoquinolin-2(1H)-yl)-2-hydroxypropyl)-3-(isochroman-7-ylmethyl)-5,5-dimethylimidazolidine-2,4-dione]
840	CC1(C)C(=O)N(Cc2ccc(C(F)(F)F)cn2)C(=O)N1CC(O)CN1CCc2ccccc2C1 (centres unmarked) [Example 77, 1-(3-(3,4-Dihydroisoquinolin-2(1H)-yl)-2-hydroxypropyl)-5,5-dimethyl-3-((5-(trifluoromethyl)pyridin-2-yl)methyl)imidazolidine-2,4-dione]
